Whole data set: some 33,000 sequences, median “E-score (-0.5 to 0.5)” near -0.041, cut for the highest 2% near 0.37. The list shows a part of the results.
The sequences below were run against T1, Ecm22 (UniProt Q05958) (assay: PBM E-score (8-mer binding enrichment) (E-score (-0.5 to 0.5)); higher = stronger / more preferred TF binding; most listed sequences are background and not binding sites). Conditions: protein concentration: 200 nM; construct: GST-full length.
T1 sequence: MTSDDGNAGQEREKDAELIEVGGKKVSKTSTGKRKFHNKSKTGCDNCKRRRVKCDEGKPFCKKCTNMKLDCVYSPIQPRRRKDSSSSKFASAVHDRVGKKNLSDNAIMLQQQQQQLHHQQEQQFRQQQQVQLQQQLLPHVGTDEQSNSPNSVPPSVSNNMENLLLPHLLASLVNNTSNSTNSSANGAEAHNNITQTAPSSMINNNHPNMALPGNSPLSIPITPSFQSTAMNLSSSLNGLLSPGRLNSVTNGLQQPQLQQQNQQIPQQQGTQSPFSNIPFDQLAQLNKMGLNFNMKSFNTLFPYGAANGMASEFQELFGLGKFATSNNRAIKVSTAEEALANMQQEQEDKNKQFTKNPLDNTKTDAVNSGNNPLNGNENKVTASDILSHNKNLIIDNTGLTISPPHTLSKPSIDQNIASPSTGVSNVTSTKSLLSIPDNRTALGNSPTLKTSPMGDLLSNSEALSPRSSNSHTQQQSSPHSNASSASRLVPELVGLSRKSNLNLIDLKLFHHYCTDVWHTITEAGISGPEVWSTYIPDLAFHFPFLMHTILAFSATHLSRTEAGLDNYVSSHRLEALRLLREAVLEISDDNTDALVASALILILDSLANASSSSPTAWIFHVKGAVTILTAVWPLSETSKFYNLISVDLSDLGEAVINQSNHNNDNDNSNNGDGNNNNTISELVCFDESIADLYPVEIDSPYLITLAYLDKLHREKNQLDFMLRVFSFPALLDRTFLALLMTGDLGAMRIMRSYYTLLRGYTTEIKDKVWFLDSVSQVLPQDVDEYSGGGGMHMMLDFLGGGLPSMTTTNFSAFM
Procedure, shortened: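 Using PURExpress in vitro transcription/translation, GST-tagged yeast transcription factors were made in full-length or DNA-binding-domain form. These were applied at about 100-200 nM to double-stranded universal all-10-mer Agilent arrays, and bound protein was detected with fluorescent anti-GST. Scans were normalised with masliner before the Universal PBM Analysis Suite assigned E-scores to ungapped eight-base words pooled with their reverse complements.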

| Sequence | PBM E-score |
| --- | --- |
| CAAAGGGA | -0.177 |
| ACGGCGGA | -0.00123 |
| AGCACGTC | -0.0967 |
| AGTACCAA | -0.119 |
| CCGGGCCC | -0.118 |
| CACGGTTA | 0.0472 |
| CCATAGAA | -0.113 |
| CAAATTCC | -0.0132 |
| AGCCGATA | -0.109 |
| GGTCTGAA | -0.0279 |
| CTTGACTC | -0.0877 |
| AAATGGCC | -0.213 |
| ACAGACGG | -0.0713 |
| GCTGTGGA | -0.15 |
| ATGAGGCC | -0.121 |
| ACTTACGG | 0.207 |
| CCCGTGAA | -0.0237 |
| AGGCTTCC | -0.107 |
| GAATCGCC | -0.024 |
| TTGGTAAA | 0.143 |
| AGGAGGCA | -0.294 |
| CGGATGTA | -0.0688 |
| GTAGAAAA | 0.101 |
| TGATCTAA | 0.0714 |
| GACCGATC | 0.0353 |

| Sequence | PBM E-score |
| --- | --- |
| ATTGAATG | -0.0677 |
| GTGTTGAA | -0.0883 |
| AAGGTCCA | -0.0883 |
| AGAAGCCC | -0.00607 |
| GGGCCCCA | -0.31 |
| CATAGGTC | -0.0995 |
| ATCCTGCA | -0.21 |
| AGTCCTCA | -0.363 |
| CAAGTACG | 0.302 |
| CGCAGACG | 0.0182 |
| CAGACGAG | 0.199 |
| CGCTTAAC | 0.347 |
| CCGTATCG | 0.291 |
| CCGCGCAG | 0.138 |
| GGGCCACA | -0.138 |
| CCGTCGTC | 0.0655 |
| ATTCGCGC | 0.091 |
| AGCTTGAC | -0.0484 |
| CCCCCTTA | -0.231 |
| GAATCACA | -0.0486 |
| AGTGACAC | -0.0235 |
| AATCTACA | 0.126 |
| CCCTACTC | -0.0363 |
| GGCGTTAC | -0.0165 |
| ACCTTAGG | -0.312 |

| Sequence | PBM E-score |
| --- | --- |
| AGATACCG | -0.0647 |
| ACGTAGGC | -0.0572 |
| CTTACATA | -0.042 |
| CAATCGTC | -0.0527 |
| CCGTCACA | -0.128 |
| TACTTTCA | -0.0821 |
| ACGAAGGG | 0.362 |
| AAAGCTCT | -0.258 |
| AACCTATC | -0.132 |
| CTTGGCTC | -0.151 |
| AGCGGAGG | -0.0849 |
| ATAGAGAA | -0.112 |
| CCCGATGA | -0.0212 |
| TATGGCGA | 0.00926 |
| CAGTCAAA | 0.0712 |
| ACAGGCAC | -0.0318 |
| CGTGACTA | 0.0224 |
| ACTCTGAA | -0.0558 |
| AATACCGA | 0.111 |
| CTAATCGA | 0.17 |
| CTTACAGA | -0.194 |
| AGCGCAGC | -0.092 |
| AGATAAGA | 0.057 |
| CAATGCAG | -0.114 |
| AGGAGCAT | -0.17 |

| Sequence | PBM E-score |
| --- | --- |
| AGTTAACC | 0.0545 |
| AATACATT | -0.0134 |
| CGAGACGC | 0.141 |
| CGCATAGA | 0.138 |
| TCTTAACA | -0.147 |
| AAACGCTT | 0.00074 |
| CACTTGAA | -0.15 |
| TCGGGTCA | 0.241 |
| CGCTATAA | 0.164 |
| AGTTGTTA | -0.108 |
| ATCCGCCG | -0.0335 |
| AAGCGTGT | -0.18 |
| AGCCAGTG | -0.0428 |
| AACACTCT | -0.223 |
| CCCTGCGG | -0.0714 |
| ACAATGTC | 0.0348 |
| AAAAGTGG | -0.0642 |
| CCAAATGC | -0.251 |
| AGTACTAT | 0.0505 |
| ACTATGCC | -0.133 |
| ATTACTCA | -0.191 |
| TACCCCCA | -0.17 |
| AGCCTTAC | -0.108 |
| CGTGCTGA | -0.109 |
| AACCTAGG | -0.145 |

| Sequence | PBM E-score |
| --- | --- |
| AAACGACG | 0.465 |
| GCCGGGAA | -0.114 |
| CAGCATCC | -0.16 |
| GATCCTGA | 0.14 |
| CCGAGGGC | 0.203 |
| CGGGGCAG | 0.098 |
| CCGACGAG | 0.165 |
| CTTGAATC | -0.0358 |
| CTGGAGGA | -0.232 |
| CAAGATCC | -0.0465 |
| GAGAACTA | 0.107 |
| CACCCAAG | 0.0915 |
| TCATAGCA | -0.108 |
| GGAGGGGA | -0.0839 |
| GCCAACAA | -0.138 |
| CCAGCAAG | -0.163 |
| CACGGCCA | -0.32 |
| CCTATGCC | -0.133 |
| TGCGGTAA | 0.0996 |
| GAGGTAGC | -0.00449 |
| ACAAAACG | 0.102 |
| AATAGTGT | 0.0911 |
| CGGTCACA | 0.0119 |
| ACCGGTCC | -0.256 |
| AAGTCGTG | -0.0717 |

| Sequence | PBM E-score |
| --- | --- |
| AGCAGACC | 0.0909 |
| CCTCTGTA | 0.102 |
| GACTAACA | 0.0595 |
| TTCTCCAA | -0.013 |
| CGCTAACG | 0.252 |
| GCAAGGCC | -0.166 |
| CCTAAACA | -0.149 |
| ATATCCAA | -0.108 |
| CCGAGCGC | 0.216 |
| TAGTCTAA | -0.04 |
| AATTGTTC | 0.122 |
| CGTGGGTA | -0.247 |
| CTTGTCAC | -0.108 |
| CTGAGTCC | -0.14 |
| AGCATGAC | -0.189 |
| AGATGTGG | -0.152 |
| AATCGATC | 0.0253 |
| GCAAGTAC | 0.0873 |
| AAGACAAG | -0.084 |
| GAAAGGGC | -0.298 |
| GTGATGTA | 0.127 |
| GGGAGACC | -0.194 |
| AACCCGCC | 0.00548 |
| CTCACGCC | -0.0247 |
| GTACAGAA | 0.12 |

| Sequence | PBM E-score |
| --- | --- |
| CACACTGA | -0.0509 |
| ATATAGGG | -0.0439 |
| GTCGCCCA | -0.207 |
| CTACTACC | -0.0712 |
| TGCCTTAA | -0.118 |
| ACACGTAA | -0.0557 |
| GGTTAAAA | 0.104 |
| CGGCTCAC | -0.0852 |
| CGCGAGCC | 0.272 |
| CCGGGGAA | -0.2 |
| AATGGAAA | -0.198 |
| GCAGAGAA | -0.192 |
| GCCGGTCC | -0.285 |
| GATTATAA | 0.16 |
| ACTGGTCA | -0.0474 |
| ATTGAGAG | -0.0594 |
| AGCGGTAC | 0.254 |
| AAAGGATA | -0.00559 |
| AAGGGCAT | -0.348 |
| AATCACAA | -0.0516 |
| AGTCCGAT | 0.0155 |
| GTCTCAAC | -0.168 |
| CAGTGCGA | 0.0878 |
| CCGAAGCC | -0.156 |
| AGCTGATG | -0.106 |

| Sequence | PBM E-score |
| --- | --- |
| CCGGACTC | -0.0304 |
| CAGTACAG | -0.0162 |
| GCCCAACA | -0.108 |
| AATTAGTC | 0.0876 |
| AATCCCCT | -0.182 |
| CAGGCTTC | -0.0197 |
| ATCCTAGA | -0.176 |
| AGGGTACG | 0.411 |
| ACAGTAGA | -0.0321 |
| CAGTAGGG | -0.255 |
| ATAGTCGG | -0.0281 |
| GGCGCGGA | -0.192 |
| AGTGTGAC | -0.0932 |
| ACGTCCCC | -0.144 |
| ATGCGACC | 0.288 |
| CGACTACC | 0.0502 |
| GCATCCAA | -0.237 |
| ATGGTTAA | -0.122 |
| CTTGTTAC | -0.105 |
| AAGGCCTT | -0.158 |
| CCGTCGCA | 0.205 |
| CAATACGG | 0.0307 |
| CATTCGGG | -0.102 |
| AGCAAGTG | -0.181 |
| CATGAAGG | -0.217 |

| Sequence | PBM E-score |
| --- | --- |
| AATTTATA | 0.238 |
| CCGTCTCA | -0.234 |
| GCGCGTCA | 0.00517 |
| ACTAGCTC | 0.124 |
| ATTGGAGG | -0.197 |
| ATCACCTC | -0.0728 |
| GTAGGGGA | -0.206 |
| GAATAAAC | 0.0513 |
| ATGCCAAT | -0.168 |
| AGCGTCCC | -0.145 |
| ACGCGACT | 0.0359 |
| ACGAGGAA | 0.375 |
| GCGTGGTA | 0.0874 |
| AAGCAGAG | -0.175 |
| ACTCCTGC | 0.0512 |
| GCAGACCA | -0.16 |
| ATCTCGGG | 0.114 |
| GCACTTTA | -0.0321 |
| ACGCGACA | 0.15 |

From the supplement of paper PMC3334620
